Measured values taken from PMC12421383, “Autophosphorylation of conserved yeast and human casein kinase 1 isozymes regulates Elongator-dependent tRNA modifications” (Nucleic Acids Research, 2025).
Where a chain is given by its changes, count along the chain named. In names and notes the source's numbering stands. These are yes or no findings as the source states them, for the method shown. For some of these results: In cells and extracts the contact can be indirect. Some entries that bind do so weakly or less than the wild type. Sequences can lack the tags named with a protein. Blank lines part the entries; values can stand above or below the binder they belong to.

Experiments:
[1] = target: T1, GST-tagged Sit4 (Saccharomyces cerevisiae (budding yeast)) (UniProt P20604); assay: pull-down; 20 μg GST-tagged bait mixed with equimolar Hrr25 variant, GST Sepharose 4B, 1 h at 4°C; 20 mM Tris pH 7.5, 150 mM NaCl, 0.5% Tween 20, 2 mM DTT, 2 mM MgCl2; three washes; SDS-PAGE and WB with Hrr25-specific antibodies; both purified
T1 sequence: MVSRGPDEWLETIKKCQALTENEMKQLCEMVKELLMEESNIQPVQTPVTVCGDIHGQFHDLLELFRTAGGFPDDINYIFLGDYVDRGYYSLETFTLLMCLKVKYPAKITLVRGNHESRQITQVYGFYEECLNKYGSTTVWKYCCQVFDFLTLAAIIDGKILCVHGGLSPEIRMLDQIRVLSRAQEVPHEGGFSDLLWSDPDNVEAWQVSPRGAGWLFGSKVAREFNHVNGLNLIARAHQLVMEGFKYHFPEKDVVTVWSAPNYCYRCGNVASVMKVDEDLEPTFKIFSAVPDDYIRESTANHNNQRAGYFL

[2] = target: T2, FL GST-Elp1 (Saccharomyces cerevisiae (budding yeast)) (UniProt Q06706); assay: as above
T2 sequence: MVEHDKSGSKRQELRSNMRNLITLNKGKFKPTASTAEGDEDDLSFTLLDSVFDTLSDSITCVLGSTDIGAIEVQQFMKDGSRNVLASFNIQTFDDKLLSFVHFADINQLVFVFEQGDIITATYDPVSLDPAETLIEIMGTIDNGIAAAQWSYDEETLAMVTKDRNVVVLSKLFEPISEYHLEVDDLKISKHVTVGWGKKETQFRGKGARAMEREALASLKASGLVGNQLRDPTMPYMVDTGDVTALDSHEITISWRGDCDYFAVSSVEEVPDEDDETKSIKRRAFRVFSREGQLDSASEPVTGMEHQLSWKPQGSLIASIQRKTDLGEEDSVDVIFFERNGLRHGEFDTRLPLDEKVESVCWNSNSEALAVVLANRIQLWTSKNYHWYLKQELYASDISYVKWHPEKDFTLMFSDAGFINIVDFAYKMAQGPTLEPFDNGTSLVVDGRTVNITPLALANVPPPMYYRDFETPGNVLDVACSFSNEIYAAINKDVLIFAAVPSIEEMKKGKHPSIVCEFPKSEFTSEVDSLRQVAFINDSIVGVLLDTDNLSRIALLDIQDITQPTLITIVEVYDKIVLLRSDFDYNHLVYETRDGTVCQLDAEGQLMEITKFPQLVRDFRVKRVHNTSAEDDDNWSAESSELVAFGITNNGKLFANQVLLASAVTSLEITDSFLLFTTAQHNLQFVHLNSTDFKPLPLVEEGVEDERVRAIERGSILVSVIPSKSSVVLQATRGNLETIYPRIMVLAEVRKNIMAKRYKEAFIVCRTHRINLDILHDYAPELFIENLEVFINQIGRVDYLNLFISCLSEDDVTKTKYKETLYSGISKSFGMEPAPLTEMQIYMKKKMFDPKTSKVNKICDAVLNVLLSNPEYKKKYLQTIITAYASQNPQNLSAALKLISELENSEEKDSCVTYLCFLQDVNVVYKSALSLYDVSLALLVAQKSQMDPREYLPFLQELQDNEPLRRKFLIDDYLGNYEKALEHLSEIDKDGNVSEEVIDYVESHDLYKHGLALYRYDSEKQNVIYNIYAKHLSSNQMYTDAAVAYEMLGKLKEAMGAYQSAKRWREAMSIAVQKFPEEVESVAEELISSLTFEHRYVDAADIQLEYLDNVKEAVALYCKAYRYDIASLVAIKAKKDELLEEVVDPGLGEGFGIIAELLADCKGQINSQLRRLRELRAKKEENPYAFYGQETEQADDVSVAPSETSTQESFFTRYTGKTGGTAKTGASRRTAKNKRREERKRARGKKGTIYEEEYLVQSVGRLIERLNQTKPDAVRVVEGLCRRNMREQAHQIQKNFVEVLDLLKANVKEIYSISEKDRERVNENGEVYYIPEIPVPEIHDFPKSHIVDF

[3] = target: T3, Myc-tagged Elp1 (Saccharomyces cerevisiae (budding yeast)) (UniProt Q06706); assay: co-IP; IP of c-Myc-tagged Elp1 from yeast total protein extract (6.5 mg) with anti-c-Myc 9E10 on magnetic beads, 16 h at 4°C, IPP100 buffer (10 mM Tris-HCl pH 8, 100 mM NaCl, 0.1% NP-40, 1 mM DTT) with protease and phosphatase inhibitors; WB with anti-Hrr25
T3 sequence: T2 sequence

B1: Hrr25 K38R, predominantly trans-autophosphorylated (enzyme, UniProt P29295 1-494)
chain: MDLRVGRKFRIGRKIGSGSFGDIYHGTNLISGEEVAIRLESIRSRHPQLDYESRVYRYLSGGVGIPFIRWFGREGEYNAMVIDLLGPSLEDLFNYCHRRFSFKTVIMLALQMFCRIQYIHGRSFIHRDIKPDNFLMGVGRRGSTVHVIDFGLSKKYRDFNTHRHIPYRENKSLTGTARYASVNTHLGIEQSRRDDLESLGYVLIYFCKGSLPWQGLKATTKKQKYDRIMEKKLNVSVETLCSGLPLEFQEYMAYCKNLKFDEKPDYLFLARLFKDLSIKLEYHNDHLFDWTMLRYTKAMVEKQRDLLIEKGDLNANSNAASASNSTDNKSETFNKIKLLAMKKFPTHFHYYKNEDKHNPSPEEIKQQTILNNNAASSLPEELLNALDKGMENLRQQQPQQQVQSSQPQPQPQQLQQQPNGQRPNYYPEPLLQQQQRDSQEQQQQVPMATTRATQYPPQINSNNFNTNQASVPPQMRSNPQQPPQDKPAGQSIWL
modifications: phosphorylated in trans by Hrr25 WT; sites not given
binding [1]: binds
binding [2]: binds

B4: Hrr25 S143A/T144A/S181A/S191A/S198A (enzyme, UniProt P29295 1-494)
chain: B1 chain with R38K, S143A, T144A, S181A, S191A, S198A
binding [3]: no binding

B6: Elp1 as used in the pull-down of Fig. 6C (protein, UniProt Q06706 1-1349)
chain: T2 sequence
binding [1]: binds

More lines, now with the values ahead:

binding [3]: binds
B2: Hrr25 wild type in yeast extract (enzyme, UniProt P29295 1-494)
chain: B1 chain with R38K

binding [3]: no binding
B3: Hrr25 T27A/S31A (enzyme, UniProt P29295 1-494)
chain: B1 chain with T27A, S31A, R38K

binding [3]: binds
B5: Hrr25 S181A/S191A/S198A (enzyme, UniProt P29295 1-494)
chain: B1 chain with R38K, S181A, S191A, S198A
